# From the supplement of paper PMC8728848
# The other results are listed elsewhere or left out.
# B1: Cohesin-hDC-ASGPR (Homo sapiens) (protein)
# chain: LDDLDAVRIKVDTVNAKPGDTVRIPVRFSGIPSKGIANCDFVYSYDPNVLEIIEIEPGDIIVDPNPDKSFDTAVYPDRKIIVFLFAEDSGTGAYAITKDGVFATIVAKVKEGAPNGLSVIKFVEVGGFANNDLVEQKTQFFDGGANVGDTTEPATPTTPVTTPTTTDDLDAASQNSKFQRDLVTLRTDFSNFTSNTVAEIQALTSQGSSLEETIASLKAEVEGFKQERQAGVSELQEHTTQKAHLGHCPHCPSVCVPVHSEMLLRVQQLVQDLKKLTCQVATLNNNASTEGTCCPVNWVEHQDSCYWFSHSGMSWAEAEKYCQLKNAHLVVINSREEQNFVQKYLGSAYTWMGLSDPEGAWKWVDGTDYATGFQNWKPGQPDDWQGHGLGGGEDCAHFHPDGRWNDDVCQRPYHWVCEAGLGQTSQESHHHHHH
# Legend:
# Assay in all cases: glycan array binding signal (z-score within array); higher = stronger binding
# Conditions in all cases: glycan notation: IUPAC condensed, linker removed
# [1] = biological target: Gal6S(b1-4)Glc6S
# Summary of the method: (§1)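 Glycan array data came from 3228 arrays in the Consortium for Functional Glycomics database, and only arrays with an available protein sequence were kept. Glycan names were put into IUPAC-condensed notation, and columns mapping to the same glycan were averaged. The binding signal is a within-array Z-score, averaged across arrays of one protein sequence run at different concentrations or buffers and across linkers. A negative Z-score can be read as non-binding.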
# [2] = biological target: Gal6S(b1-4)GlcNAc
# Summary of the method: as §1
# [3] = biological target: Gal6S(b1-4)GlcNAc6S
# Summary of the method: as §1
# [4] = biological target: GalNAc(a1-3)Gal
# Summary of the method: as §1
# [5] = biological target: GalNAc(a1-3)GalNAc
# Summary of the method: as §1
# [6] = biological target: GalNAc(a1-3)GalNAc(b1-3)Gal(a1-4)Gal(b1-4)Glc
# Summary of the method: as §1
# [7] = biological target: GalNAc(a1-3)GalNAc(b1-3)Gal(a1-4)Gal(b1-4)GlcNAc
# Summary of the method: as §1
# [8] = biological target: GalNAc(b1-3)Gal
# Summary of the method: as §1
# [9] = biological target: GalNAc(b1-3)Gal(a1-4)Gal(b1-4)GlcNAc
# Summary of the method: as §1
# [10] = biological target: GalNAc(b1-3)Gal(a1-4)Gal(b1-4)GlcNAc(b1-3)Gal(b1-4)Glc
# Summary of the method: as §1
# [11] = biological target: GalNAc(b1-3)Gal(a1-6)Gal(b1-4)Glc
# Summary of the method: as §1
# [12] = biological target: GalNAc(b1-3)GalNAc
# Summary of the method: as §1
# [13] = biological target: GalNAc(b1-3)GlcNAc
# Summary of the method: as §1
# [14] = biological target: GalNAc(b1-4)Gal(b1-4)Glc
# Summary of the method: as §1
# [15] = biological target: GalNAc(b1-4)GlcNAc
# Summary of the method: as §1
# [16] = biological target: GalNAc(b1-4)GlcNAc(b1-2)Man
# Summary of the method: as §1
# [17] = biological target: GalNAc(b1-4)GlcNAc(b1-2)Man(a1-3)[GalNAc(b1-4)GlcNAc(b1-2)Man(a1-6)]Man(b1-4)GlcNAc(b1-4)GlcNAc
# Summary of the method: as §1
# [18] = biological target: GalNAc(b1-4)GlcNAc(b1-3)GalNAc(b1-4)GlcNAc
# Summary of the method: as §1
# [19] = biological target: GalNAc(b1-4)GlcNAc6S
# Summary of the method: as §1
# [20] = biological target: GalNAc(b1-6)GalNAc
# Summary of the method: as §1
# [21] = biological target: GalNAc3S(b1-4)GlcNAc
# Summary of the method: as §1
# [22] = biological target: GalNAc3S(b1-4)GlcNAc3S
# Summary of the method: as §1
# [23] = biological target: GalNAc3S(b1-4)[Fuc(a1-3)]GlcNAc
# Summary of the method: as §1
# [24] = biological target: GalNAc4S6S(b1-4)GlcNAc
# Summary of the method: as §1
# [25] = biological target: GalNAc6S(b1-4)GlcNAc
# Summary of the method: as §1
# [26] = biological target: Glc(a1-4)Glc
# Summary of the method: as §1
# [27] = biological target: Glc(a1-4)Glc(a1-4)Glc(a1-4)Glc
# Summary of the method: as §1
# [28] = biological target: Glc(a1-6)Glc(a1-6)Glc
# Summary of the method: as §1
# [29] = biological target: Glc(a1-6)Glc(a1-6)Glc(a1-6)Glc
# Summary of the method: as §1
# [30] = biological target: Glc(b1-4)Glc
# Summary of the method: as §1
# [31] = biological target: Glc(b1-6)Glc
# Summary of the method: as §1
# [32] = biological target: GlcA(b1-3)Gal
# Summary of the method: as §1
# [33] = biological target: GlcA(b1-3)GlcNAc
# Summary of the method: as §1
# [34] = biological target: GlcA(b1-6)Gal
# Summary of the method: as §1
# [35] = biological target: GlcA3S(b1-3)Gal(b1-4)GlcNAc(b1-2)Man
# Summary of the method: as §1
# [36] = biological target: GlcA3S(b1-3)Gal(b1-4)GlcNAc(b1-3)Gal(b1-4)Glc
# Summary of the method: as §1
# [37] = biological target: GlcNAc(a1-3)Gal(b1-4)GlcNAc
# Summary of the method: as §1
# [38] = biological target: GlcNAc(a1-4)Gal(b1-3)GlcNAc
# Summary of the method: as §1
# [39] = biological target: GlcNAc(a1-4)Gal(b1-4)GalNAc
# Summary of the method: as §1
# [40] = biological target: GlcNAc(a1-4)Gal(b1-4)GlcNAc
# Summary of the method: as §1
# [41] = biological target: GlcNAc(a1-4)Gal(b1-4)GlcNAc(b1-3)Gal(b1-4)Glc
# Summary of the method: as §1
# [42] = biological target: GlcNAc(a1-4)Gal(b1-4)GlcNAc(b1-3)Gal(b1-4)GlcNAc
# Summary of the method: as §1
# [43] = biological target: GlcNAc(a1-4)Gal(b1-4)GlcNAc(b1-3)Gal(b1-4)GlcNAc(b1-3)Gal(b1-4)GlcNAc
# Summary of the method: as §1
# [44] = biological target: GlcNAc(a1-4)Gal(b1-4)GlcNAc(b1-3)Gal(b1-4)[Fuc(a1-3)]GlcNAc(b1-3)Gal(b1-4)[Fuc(a1-3)]GlcNAc
# Summary of the method: as §1
# [45] = biological target: GlcNAc(a1-6)Gal(b1-4)GlcNAc
# Summary of the method: as §1
binder,measurement,setting,value
B1,glycan array binding signal (z-score),[1],-0.434
same,glycan array binding signal (z-score),[2],-0.312
same,glycan array binding signal (z-score),[3],-0.486
same,glycan array binding signal (z-score),[4],2.61
same,glycan array binding signal (z-score),[5],2.37
same,glycan array binding signal (z-score),[6],2.11
same,glycan array binding signal (z-score),[7],1.97
same,glycan array binding signal (z-score),[8],2.76
same,glycan array binding signal (z-score),[9],2.71
same,glycan array binding signal (z-score),[10],2.52
same,glycan array binding signal (z-score),[11],2.84
same,glycan array binding signal (z-score),[12],-0.484
same,glycan array binding signal (z-score),[13],2.81
same,glycan array binding signal (z-score),[14],-0.339
same,glycan array binding signal (z-score),[15],2.7
same,glycan array binding signal (z-score),[16],2.86
same,glycan array binding signal (z-score),[17],2.33
same,glycan array binding signal (z-score),[18],2.58
same,glycan array binding signal (z-score),[19],2.65
same,glycan array binding signal (z-score),[20],-0.512
same,glycan array binding signal (z-score),[21],-0.474
same,glycan array binding signal (z-score),[22],-0.51
same,glycan array binding signal (z-score),[23],-0.502
same,glycan array binding signal (z-score),[24],-0.516
same,glycan array binding signal (z-score),[25],2.47
same,glycan array binding signal (z-score),[26],-0.394
same,glycan array binding signal (z-score),[27],-0.459
same,glycan array binding signal (z-score),[28],-0.306
same,glycan array binding signal (z-score),[29],-0.5
same,glycan array binding signal (z-score),[30],-0.408
same,glycan array binding signal (z-score),[31],-0.063
same,glycan array binding signal (z-score),[32],-0.505
same,glycan array binding signal (z-score),[33],-0.456
same,glycan array binding signal (z-score),[34],-0.497
same,glycan array binding signal (z-score),[35],-0.516
same,glycan array binding signal (z-score),[36],-0.515
same,glycan array binding signal (z-score),[37],-0.362
same,glycan array binding signal (z-score),[38],-0.515
same,glycan array binding signal (z-score),[39],-0.515
same,glycan array binding signal (z-score),[40],-0.516
same,glycan array binding signal (z-score),[41],-0.508
same,glycan array binding signal (z-score),[42],-0.475
same,glycan array binding signal (z-score),[43],-0.506
same,glycan array binding signal (z-score),[44],-0.444
same,glycan array binding signal (z-score),[45],-0.439
